Reference: the supplement of paper PMC3334620
In all, about 33,000 sequences were measured (“E-score (-0.5 to 0.5)”: median about -0.054, highest 2% from about 0.35 on). Some of the results follow.

target: T1, Stb5 (UniProt P38699); assay: PBM E-score (8-mer binding enrichment) (E-score (-0.5 to 0.5)); higher = stronger / more preferred TF binding; most listed sequences are background and not binding sites; details: protein concentration: 200 nM; construct: GST-full length
T1 sequence: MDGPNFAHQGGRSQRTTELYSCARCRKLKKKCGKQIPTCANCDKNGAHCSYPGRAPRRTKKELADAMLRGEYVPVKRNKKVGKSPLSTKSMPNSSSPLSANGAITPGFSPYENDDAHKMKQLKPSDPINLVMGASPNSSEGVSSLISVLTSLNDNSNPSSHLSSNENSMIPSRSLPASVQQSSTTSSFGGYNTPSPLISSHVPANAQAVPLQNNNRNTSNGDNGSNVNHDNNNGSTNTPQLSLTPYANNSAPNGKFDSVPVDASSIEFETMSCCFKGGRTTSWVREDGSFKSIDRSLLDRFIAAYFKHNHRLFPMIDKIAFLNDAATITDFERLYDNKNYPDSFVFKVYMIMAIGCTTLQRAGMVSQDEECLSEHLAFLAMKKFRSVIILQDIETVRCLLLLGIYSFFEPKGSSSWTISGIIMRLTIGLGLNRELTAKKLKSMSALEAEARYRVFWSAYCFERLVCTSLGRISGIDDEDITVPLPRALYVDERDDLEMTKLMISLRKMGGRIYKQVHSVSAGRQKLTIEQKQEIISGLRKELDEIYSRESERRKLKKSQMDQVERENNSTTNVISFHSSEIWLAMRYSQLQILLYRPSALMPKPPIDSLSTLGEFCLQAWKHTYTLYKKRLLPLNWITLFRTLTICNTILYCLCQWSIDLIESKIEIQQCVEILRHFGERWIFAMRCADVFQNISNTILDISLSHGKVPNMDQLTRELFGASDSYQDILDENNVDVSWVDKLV
Summary of the method: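 Yeast transcription factors carrying a GST tag, as full-length proteins or DNA-binding domains, were produced by PURExpress in vitro transcription/translation. About 100-200 nM protein was applied to universal all-10-mer Agilent arrays, double-stranded by primer extension on fresh or once-stripped slides. Bound protein was detected with fluorescent anti-GST, and scans were normalised with masliner. The Universal PBM Analysis Suite gave each ungapped eight-base word, pooled with its reverse complement, an E-score, a modified Wilcoxon-Mann-Whitney statistic.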

Sequence	PBM E-score
GATACGGC	0.141
TAATCTAA	0.0106
CCAGAAGC	0.0499
ATAGCCCC	0.317
GCCAAGCA	-0.299
CAGATCAA	-0.0808
CCATCAAA	-0.102
GTATCATA	0.00154
AAGCCTTC	-0.212
CTGGACTC	-0.169
ACGTCAGA	-0.346
CGGTGAAG	0.12
CCGGCGGC	0.327
CACGACAC	-0.0256
CCACAAGA	-0.188
GGATAAAA	0.216
ATAGCATG	-0.251
AGACACAC	-0.247
CGAACCCC	0.28
ATGTTGTC	-0.063
AGGTGCGC	0.0592
CTGAACCC	-0.0816
CCAACGAA	-0.164
GAAGTTCC	0.0956
GAATTCTA	-0.248

Sequence	PBM E-score
GTACTCCA	-0.229
GCGACAAC	-0.0148
AAGTAACC	-0.0633
GCCTAATA	0.103
ATGCGTCA	-0.306
CCTCATTC	-0.192
TAGACCGA	0.208
CTATAAAA	-0.00164
ATCGTATG	-0.331
AACAACTA	-0.0698
TCCAGCGA	-0.167
CGAGGAGC	-0.0797
GCAACTAC	0.0347
CTCTATGC	-0.153
GTTACCGA	0.197
GCTAGCCA	-0.154
CACGACTA	-0.254
TAGAACAA	-0.15
CACGGGCC	0.294
CGGATTAA	0.231
CGCGTATA	0.0871
AGGGGCAC	-0.238
GTCCGAAC	0.283
CACAAACG	0.124
CCGTGGAC	0.222

Sequence	PBM E-score
CGGGATAA	0.22
AGTTCAGG	-0.0729
AGTGGACA	-0.0574
ATCTAGCG	-0.0929
CCTTTGGC	-0.232
CGAATTTC	-0.0899
CACTAGAA	-0.0294
CACCTCCG	0.182
ACCTAAGG	-0.204
ATGGGATG	-0.069
CTGGCACA	-0.364
ATTTTCGC	0.162
GCGTAGTA	-0.0643
AATAGCAC	0.17
CAAATGAC	-0.143
GCCAGGCC	-0.0319
AACTCAAC	-0.0587
GTCATCAA	-0.122
AAGCGAGA	-0.111
ACCTCGGA	0.174
GACCCGGC	0.179
GCGGCACA	0.173
GGTTCGGA	0.234
CACGTTGA	-0.235
TCTACAGA	0.0295

Sequence	PBM E-score
ATGAGCGA	-0.0585
AGCAAACG	-0.0464
GTTTAGCA	0.0785
ATTTAACC	0.25
AACGTCAT	-0.0687
AGTTAGGC	-0.144
AGCATCAA	-0.209
ACGTCCGG	0.244
GGGCTTTA	0.326
CACTTGTC	0.0179
ACGCTGAA	-0.102
GCGCCTCC	-0.0611
TAACTCCA	0.182
CTAGCCGA	-0.0323
CTTATGGC	-0.0192
GTCCAACA	-0.0985
AAGACCGT	0.382
AGTCCCGA	0.342
CTCGCTGC	-0.0749
CTTCACAC	-0.0447
ATAGTAGG	0.0158
AGGTTCAA	-0.0479
GGGCGGAC	0.408
TACCTAAA	0.029
CTGTGCGC	-0.0199

Sequence	PBM E-score
ATAACTGA	-0.0343
TGGCACAA	-0.295
GTTGAAAC	0.112
GAGTAATA	0.0626
ACATTACT	-0.131
CCATTAAC	-0.181
AGACTCTC	-0.197
TCGTGGAA	0.00034
CGAGATTA	0.0972
AAGAAGCC	0.0812
CTCCGGGA	0.267
AGATGCGA	0.0797
CCAAGAGA	-0.246
CATCTGCG	-0.0145
CGTTTTGA	-0.0622
AGTTGAAA	0.215
ATATGTGA	-0.172
CCCTCTCC	-0.338
CCGACAAG	0.266
CCAGTGGA	-0.326
ACGGTGAT	0.367
AGCAACAA	0.033
CAACGCGC	-0.0988
AATATCTC	0.251
ACAGAGCA	-0.102

Sequence	PBM E-score
ACTCATTA	-0.104
GTCCTCGA	-0.265
ATATTGCG	0.16
GAACTGAC	-0.12
CTGGTCTC	-0.359
ACCCATTG	-0.196
ACGTTGCC	-0.204
GCAACCAC	-0.0592
AGTTGGAG	-0.0719
CCACTAAA	-0.12
ACAACGCA	-0.159
AATACCCC	0.304
ATTTGATC	0.0711
CGCCTCAG	-0.0198
CCTAGAAC	-0.00851
ATGGAATA	0.0263
AAAACCAG	-0.14
CCTATCTA	-0.116
ATCCGTCG	0.219
TAATCCCA	0.159
GATTGGAC	-0.051
CAGGCGGA	0.271
GTCACTCA	-0.124
TAAAGAGA	-0.0758
GCAATCTA	-0.0252

Sequence	PBM E-score
ACTGCGTG	-0.174
CAGCGATC	0.0622
TGATAACA	-0.0628
GCAGCTCA	-0.277
CCACCTGA	-0.124
ACGGCCTG	0.147
GGAACGCC	0.119
AAAATCAA	-0.0562
AGTTCGGA	0.208
TGTCTTAA	0.00631
ATCACTAC	-0.315
ATTTGCAA	-0.15
ACAGAGAT	-0.135
CACGCACG	0.0155
ATTTTGCC	0.0618
ATTGGGTG	-0.0939
TGCAGTAA	-0.112
ACCGTGGG	0.107
CATCGTGG	-0.0422
ACTAGGCA	0.0431
GTCCGGAA	0.192
AGGTCGCA	0.0143
